The record followed here is PubChem BioAssay AID1347073 (National Center for Advancing Translational Sciences (NCATS), 2019).

About 200 (0.44%) of roughly 45,000 compounds were called active. Inconclusive results (about 7%) are left out. The call rests on the fitted dose curve; in most records, active means well fitted activation curve with a large enough effect; inconclusive means small, poorly fitted or top-dose-only effect; inactive means no such curve, though single readings can be large or run the other way. Some of the results follow.
Potency means the concentration at half of the fitted maximal effect.

A short description of the assay: qHTS of TDP-43 Inhibitors: NCGC Sytravon Library Screen. Further: nearly all actives have a fitted effect of over 55% in size. On growth rescue (activation): 0% is about no effect. Particulars: yeast TDP-43 toxicity rescue, BacTiter-Glo growth, 24 h; series mostly up to 46.1 µM; growth rescue (activation): at the top concentration. The method in brief: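 TDP-43-expressing yeast, pregrown in raffinose, seeded at OD600 0.02 in galactose medium with compound for 24 hr at 30 deg C. Growth read by BacTiter-Glo luminescence, so rescue of toxicity appears as activation.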
For orientation: qHTS replaces the single test concentration by a dilution series.
With `CN1CCN(c2cc(-c3cccc(C(=O)O)c3)nc3ccnn23)CC1`, the “growth rescue (activation)” value is inactive: 2.96%.

Turning to `O=C(COC(=O)c1cccc(NS(=O)(=O)c2ccc(F)c(F)c2)c1)NC(=O)NC1CCCC1`, the “growth rescue (activation)” value is inactive: -30.6%.

As for `COc1ccc(CCNC(=O)CCc2nnc(Cc3ccc4c(c3)OCO4)o2)c(OC)c1`, the “growth rescue (activation)” value is inactive: -10.5%. For the compound `CCCCN1C(=O)C(=O)N(CC(=O)c2cc(C)n(C3CC3)c2C)C1=O`, the “growth rescue (activation)” value was inactive: 10%. Take `O=C(CCNC(=O)OCc1ccccc1)NC1CCCCC1`: the “growth rescue (activation)” value was inactive: 13%.

Consider `COc1ccc(-c2noc(CN(C(=O)C(C)Oc3ccc(C)cc3)C(C)C)n2)cc1` (configuration not stated), for which the Potency was active: 20 µM. Regarding `CCOc1ccc(NC(=O)N2CCN(c3ccc(Cl)c(Cl)c3)CC2)cc1`, the “growth rescue (activation)” value is inactive: -0.5%. Take `Cc1oc2c(C)c3oc(=O)c4c(c3cc2c1C)CCC4`: the “growth rescue (activation)” value was inactive: 18.1%. Consider `O=C(O)c1ccccc1SCc1cn2cc(Cl)ccc2n1`, for which the “growth rescue (activation)” value is inactive: -13.8%. Take `CN1C(=O)/C(=C\c2ccco2)N=C1c1ccc(Cl)cc1Cl`: the “growth rescue (activation)” value is inactive: -12.3%. `O=C(/C=C/c1ccco1)NC(=S)Nc1ccc(O)c(-c2nc3ccccc3s2)c1`: the “growth rescue (activation)” value is inactive: -6.12%. Regarding `COc1ccc2[nH]c(=O)c(CN(C(=O)c3cccnc3)c3ccc(C)c(C)c3)cc2c1`, the “growth rescue (activation)” value is inactive: 15.4%. Turning to `O=C(CC1(O)C(=O)Nc2ccccc21)c1cccc(Br)c1` (configuration not stated), the “growth rescue (activation)” value was inactive: -30.6%.

Regarding `COc1ccccc1OCC(=O)N/N=C1\CCCCc2ccccc21`, the “growth rescue (activation)” value is inactive: 30.1%. Regarding `NS(=O)(=O)c1ccc(NC(=S)Nc2nn(Cc3ccc(Cl)cc3Cl)cc2Cl)cc1`, the “growth rescue (activation)” value was inactive: 18.8%. With `CCCCNC(=O)[C@@H]1CSC2c3ccccc3C(=O)N21` (some centres not stated), the “growth rescue (activation)” value is inactive: -0.544%. On to `O=C(CNC(=O)c1ccc(Cl)cc1Cl)OC1CCCCC1=O` (configuration not stated), for which the “growth rescue (activation)” value was inactive: 32.1%. Regarding `Cc1cccc(/C=N/n2c(-c3ccncc3)n[nH]c2=S)c1`, the “growth rescue (activation)” value is inactive: 3.72%.

As to `COc1cc(CCC(=O)NNC(=O)c2cccc(Cl)c2)cc(OC)c1OC`, the “growth rescue (activation)” value was inactive: 12.4%. For the compound `CC(Sc1nnc2ccccn12)C(=O)Nc1ccc(N2CCOCC2)cc1` (configuration not stated), the “growth rescue (activation)” value is inactive: -5.24%.

As to `COc1ccccc1/C=C/C=N/NC(=O)c1ccccn1`, the “growth rescue (activation)” value is inactive: 18.3%. `COc1ccc(-n2c(CN3CCN(c4ccccc4)CC3)nc3ccc([N+](=O)[O-])cc3c2=O)c(OC)c1`: the “growth rescue (activation)” value is inactive: 5.45%. As for `CCCS(=O)(=O)NC(=O)C1(C)CCN(C(=O)c2cccc(C(F)(F)F)c2)C1` (configuration not stated), the “growth rescue (activation)” value is inactive: -6.48%. Consider `CC(NC(=O)COC(=O)c1c[nH]c2ccccc12)c1ccccc1` (configuration not stated), for which the “growth rescue (activation)” value was inactive: -17.4%. Turning to `CC1CN(S(=O)(=O)c2ccc(C(=O)NC3CCCCC3)cc2)CC(C)O1` (configuration not stated), the “growth rescue (activation)” value was inactive: 23.1%. Still for that read-out and setting: the figure for `COC(=O)C(C)n1cnc2c(cnn2-c2ccc(Cl)cc2)c1=O` (configuration not stated) is inactive: 11.5%.

Turning to `COc1ccc2[nH]cc(CCNC(=O)C3CC(=O)N(c4ccc(Cl)cc4)C3)c2c1` (configuration not stated), the “growth rescue (activation)” value was inactive: -32.9%. As to `O=C(c1ccc(-n2cnnn2)cc1)N1CCOCC1`, the “growth rescue (activation)” value was inactive: -1.5%. On the same count and under the same terms, the figure for `CC1(C(=O)NCc2ccccc2Br)CCN1Cc1ccc2ccccc2c1` (configuration not stated) is inactive: 4.91%; for `COc1ccc(NS(=O)(=O)c2cccc(NC(=O)C34CCC(CC3)C4)c2)cc1` it is inactive: 15.1%; for `Cc1ccc(S(=O)(=O)N2CCCCC2)cc1C(=O)NCC1CCCO1` (configuration not stated) it is inactive: -7.56%. On to `COc1cccc(C(=O)NNC(=O)C(=O)Nc2ccc(C)c(Cl)c2)c1`, for which the “growth rescue (activation)” value was inactive: 6.2%. Still for that read-out and setting: to `CCOc1ccc(N(CC(=O)Nc2c(C)n(C)n(-c3ccccc3)c2=O)S(=O)(=O)c2ccc(F)cc2)cc1` belongs inactive: 7.64%; to `COc1ccc(NC(=O)CN(C)CC(=O)Nc2ccccc2SC)cc1Cl`, inactive: -6.14%.

Take `CCCCCC1CCC(c2ccc(C(N)=O)cc2)CC1` (configuration not stated): the “growth rescue (activation)” value is inactive: 19.5%. As for `C=CCOc1ccc(CNCCc2ccc(S(N)(=O)=O)cc2)cc1`, the “growth rescue (activation)” value is inactive: -5.33%. With `CC(NS(=O)(=O)c1ccc(Br)cc1)C(=O)NCc1ccco1` (configuration not stated), the “growth rescue (activation)” value was inactive: -15.8%. In the case of `O=C(CCNS(=O)(=O)c1ccc(Cl)cc1)NCc1cccs1`, the “growth rescue (activation)” value is inactive: 3.91%.

Turning to `COc1ccc(C2CC(=O)C3=C(C2)Nc2ccccc2NC3c2coc3ccccc3c2=O)cc1OC` (configuration not stated), the “growth rescue (activation)” value was inactive: -5.75%. On to `C/C(CC(=O)Nc1cccc(Cl)c1Cl)=N\NC(=O)C(=O)N1CCCC1`, for which the “growth rescue (activation)” value is inactive: 2.5%. Same read-out and setting: the figure for `COc1ccc(CN(Cc2ccc(C(=O)O)cc2)C(=S)Nc2cccc(C)c2)cc1OC` is inactive: -3.41%. In the case of `Cc1ccc(C(=O)O)cc1S(=O)(=O)Nc1ccccc1C(=O)NC1CC1`, the “growth rescue (activation)” value was inactive: 17.1%.

On to `CCOc1ccc(NC(=O)C2=C(C)C(=O)OC23CCC(C)CC3)cc1` (configuration not stated), for which the Potency is active: 12.6 µM. For `CNc1ccc(S(=O)(=O)NCC(=O)OCC(=O)Nc2cccc(Cl)c2Cl)cc1[N+](=O)[O-]`, the “growth rescue (activation)” value was inactive: 8.49%. Consider `CC(C)Cc1[nH]c(=O)c(C#N)c2c1COC(C)(C)C2`, for which the “growth rescue (activation)” value is inactive: -3.41%. Regarding `O=C(CSc1ncn[nH]1)Nc1ccccc1Sc1ccc(Cl)cc1`, the “growth rescue (activation)” value is inactive: 18.6%. The same measure, in the same setting: to `CN(CC(=O)Nc1ccccc1C(F)(F)F)C(=O)CSc1nnnn1C` belongs inactive: -6.4%; to `CCOc1ccc2[nH]c(=O)c(CN(CC3COCCO3)C(=O)C3CC3)cc2c1` (configuration not stated), inactive: 30.8%; to `COc1ccc(CC(=O)NNc2ncnc3c2cnn3-c2ccc(C)cc2)cc1OC`, inactive: 2.72%. Still for that read-out and setting: the figure for `CCNS(=O)(=O)c1ccc(CCC(=O)NCCc2ccc(OC)cc2)cc1` is inactive: 7.89%; for `O=C(O)C1CC(O)CN1S(=O)(=O)c1ccc2ccccc2c1` (configuration not stated) it is inactive: 20.8%; for `CCCOc1c(Br)cc(C2C3=C(CCCC3=O)N(CC)C3=C2C(=O)CCC3)cc1OC` it is inactive: 34.7%.
